Measurements: the supplement of paper PMC3334620
The full ranking holds about 33,000 sequences; the median of “E-score (-0.5 to 0.5)” is about -0.056, and the highest 2% start at about 0.38. The list shows a part of the results.

Target: Stb4 (UniProt P50104)
Test: PBM E-score (8-mer binding enrichment) (E-score (-0.5 to 0.5)); higher = stronger / more preferred TF binding; most listed sequences are background and not binding sites
Conditions: protein concentration: 200 nM; construct: GST-DNA-binding domain
Procedure, shortened: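 Full-length yeast transcription factors or their DNA-binding domains, GST-tagged and expressed with PURExpress, were applied at about 100-200 nM to universal all-10-mer Agilent arrays. These arrays had been made double-stranded by primer extension on fresh or once-stripped slides. Detection used fluorescent anti-GST, normalisation used masliner, and E-scores for ungapped eight-base words pooled with reverse complements came from the Universal PBM Analysis Suite.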

Sequence	PBM E-score
ACGCCCCG	0.172
CCTGACAC	-0.0977
CGGCGCCA	0.11
CAGAGCCG	0.237
GATAGTGC	0.0586
ACTAATGG	0.0197
ACCGTCGC	0.188
ACGCATAC	-0.00984
ACATGACT	-0.282
CGCAGTCA	-0.185
ACCTGTGG	0.0316
CTATTGCA	-0.0693
CTCAGGAG	-0.226
ACGGCTGC	0.112
CACCAGTG	-0.322
CCATCGAA	-0.16
CAGACTAG	-0.358
CGCTGGAC	-0.131
AGTTTCAC	-0.256
CAGTTCCC	0.203
CAGTTGGG	-0.244
ATAATCGA	-0.0635
ACTTCCGC	0.379
AGAGTGGG	-0.103
ACATTAAT	-0.0324

Sequence	PBM E-score
CTTCAATC	0.0447
CGGAGGGC	0.126
ATAACCCA	-0.0904
GATTGTCA	0.0614
CCGTTGGA	0.00392
AGAGAGAG	-0.38
AACCTAGC	0.0506
CAATTCCC	0.0982
CATTGCAC	-0.0371
TGCGTCAA	-0.147
TCCGACGA	0.386
AGAACCCT	-0.113
CAAATAGA	-0.0992
CTCCTAGA	-0.242
AGCTGTTA	-0.218
GTACAAGA	-0.191
ATTGAGCA	-0.234
AAGCTGTA	-0.0663
ACCCTCGA	-0.165
AAAATGAC	0.0259
CTCTGTGA	-0.33
CGTACCAA	-0.0228
ACGTGATG	-0.0799
ACCACGAA	-0.214
GTGGACGA	-0.172

Sequence	PBM E-score
AAACAGCG	-0.148
AGAGCCGA	0.39
AGCTTTCC	0.2
ATCCGAAC	0.475
AGGTGAGA	-0.0994
GGCTATTA	0.106
CTAGTACA	-0.126
AGCCGTCG	0.145
AGGGAAGA	-0.277
ACTGCGCG	-0.101
AAATACTG	-0.168
CACGGAGG	0.134
CAAGTATA	-0.0492
CATACGGG	0.152
ATGGCAGC	-0.171
AGGAAAAC	-0.0217
CTCACTGC	-0.0364
TTTAAAAA	-0.0431
GACTATTA	-0.12
ATAACGAT	-0.0395
AGGGAATC	-0.127
CATGTAGG	-0.0845
ATGGATAA	0.024
TCGACAAA	-0.0114
GCTAGCCC	-0.0688

Sequence	PBM E-score
ATTTTCAG	-0.0712
GGTAAGAA	0.118
ATCCTCTA	-0.0427
AGTAATGC	0.0258
AACCGAGA	0.407
ATTCGTAG	0.0347
CACGCGGG	0.12
CGAGGCTC	0.134
GTAAACCA	0.204
CTAGCGGA	0.0447
CTCCCCAC	-0.184
GGATATTA	0.292
ACCTTACG	-0.111
AGATGCAT	-0.192
CAACTCAG	-0.192
ATGGCTAG	-0.0941
ATAGCTTA	-0.106
AACGTCGG	0.297
CATGATGC	-0.212
AGGAGACC	-0.188
GCAGCCCC	0.00147
ATGGCGCG	0.0151
CGTGTGCC	-0.105
CCGTGCGC	0.222
ATCCAGAG	-0.166

Sequence	PBM E-score
GTGCAAAA	-0.231
AGTCAGCG	-0.00255
GAACCACC	0.218
CTTGACGC	-0.109
TCCCCTAA	-0.0984
TCGCAAGA	-0.118
ACTGCTGC	-0.137
GTCGGAGA	0.294
CACCCAAA	-0.0471
CTGCGTAA	-0.0547
ACCAATAA	-0.204
CTTTTGCA	-0.181
CCATAGGA	-0.392
TCCAGGAA	-0.03
AAATTCAG	-0.017
AGCCGAAT	0.426
ACGTATTC	0.0489
AACGCTGG	-0.181
CCTTATCG	0.118
GCTTCGCC	-0.243
AGGTACGC	-0.0999
ACCAGCTG	-0.268
ACTTGCGG	0.0786
TACGTACA	0.0359
AAGTCAGG	0.0343

Sequence	PBM E-score
GGCCCCAA	-0.136
CGCTAGGC	-0.118
CATATCAA	0.00716
AAGATAGA	-0.183
CAGGTATA	-0.148
GAGGTCCA	-0.071
CAAACTGG	-0.167
GCAGTAGC	-0.16
AACGAATA	-0.0723
CACCCTCG	0.0812
ACGGGGAT	0.0997
CTTGGGTC	-0.202
AGGCAATA	-0.11
TTGGAAAA	-0.0054
AGCTGTTG	-0.071
TCGAGTAA	-0.0675
AGGCGCCT	-0.296
ATGAGAAG	-0.262
ACGCGAGC	-0.00272
AGTACGAC	-0.185
AGGAGAAG	-0.166
AGCCATTC	-0.155
CTTGTCAA	-0.0589
AATAATAT	0.176
CACGTGTA	-0.0718

Sequence	PBM E-score
CCACATGG	-0.125
GACATCTA	-0.0505
AAGTCTGA	-0.33
CGAGGCCG	0.202
CTAGGGAC	-0.132
CACAGAAC	-0.212
GTGTCTCA	-0.139
CAGCCATA	-0.145
AGCTTCGC	-0.276
TATTGTGA	-0.161
AAAGACTA	0.0612
CGTCCTAG	-0.043
CCCCATCA	-0.137
CAGCTATC	-0.089
ATCTAATA	-0.245
CGTAGATC	0.0274
ACTAGACA	-0.0461
ATCCCCAT	-0.077
ATGTATGC	0.026
CCGTACGC	0.126
CAAGGGAG	-0.0824
GCGGGAGC	0.155
